“And” between values parts separate entries of the source, which are not always exact repeats. Equal entries are not always repeated. The campaign covered roughly 420,000 compounds. About 64,000 (15%) were called active. Inconclusive means that the source gave no clear call. Such entries were picked first, then a sample of the others. Calls follow the shape of the dose curve; as a rule, active = well fitted inhibition curve with a large enough effect; inconclusive = small, poorly fitted or top-dose-only effect; inactive = flat fitted curve, though single readings scatter. Potencies of inconclusive entries are doubtful fits and often do not repeat.
Test: qHTS for Inhibitors of human tyrosyl-DNA phosphodiesterase 1 (TDP1): qHTS in cells in absence of CPT; also: nearly all actives have a fitted effect of over 55% in size
Conditions: DT40 Tdp1-/- hTDP1 cells, no CPT, ATP luminescence, 48 h; activity change, negative = growth inhibition: at 46.2 µM (top of the series) unless noted
Summary of the method: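 Growth of hTDP1-complemented DT40 Tdp1-knockout cells is measured by ATP luminescence after at least 48 hr compound exposure at 37 °C, with DMSO substituting for the 20 nM CPT used in the parallel screen.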
% is scaled to controls: 0 for no effect and ±100 for the full control effect; potency is read from the fitted curve at half-maximal effect; tags tell the direction and shape of the fitted curve.

Row | Structure (SMILES) | Potency | activity change, negative = growth inhibition
1 | CCCCCCCCN1[C@@H](CC(=O)O)c2ccc(C(F)(F)F)cc2S1(=O)=O | inactive and inconclusive: 14.1 µM [inhibitor, single point] | –
2 | CN1C(=O)C(N=Nc2ccccc2C(=O)O)N(C)C1=S (configuration not stated) | inconclusive: 18.4 µM [inhibitor, single point] | –
3 | COc1cc(/C=N/O)ccc1OCc1ccc([N+](=O)[O-])cc1 | inconclusive: 20.6 µM [inhibitor, single point] | –
4 | CCCC(=O)Nc1ccc(C(=O)N/N=C/c2ccc([N+](=O)[O-])o2)cc1 | active: 9.2 µM | –
5 | CC(C)N(Cc1ccccc1)C(=O)COC(=O)c1ccccc1SCC(=O)N1CCCC1 | inconclusive: 18.4 µM [inhibitor, single point] | –
6 | COc1ccc(OC)c(CNc2nc3ccc(C)cc3n3nnnc23)c1 | inactive | –
7 | C/C(=N\NC(=O)c1cc(Cl)ccc1O)c1ccc(Br)s1 | inconclusive: 23.1 µM [inhibitor, single point] | –
8 | COC(=O)c1cc2sc(Cl)cc2n1CC(=O)Nc1cc(C)cc(C)c1 | inconclusive: 23.1 µM [inhibitor, single point] | –
9 | CN(C(=O)COC(=O)c1cccnc1Nc1cccc(C(F)(F)F)c1)C1CCS(=O)(=O)C1 (configuration not stated) | inconclusive: 23.1 µM [inhibitor, single point] | –
10 | NC(=O)C1(N2CCCCC2)CCN(CC(=O)Nc2ccc(Oc3ccccc3)cc2)CC1 | – | inconclusive: -30.1% [inhibitor]
11 | CC(NC(=O)OC(C)(C)C)C(=O)Oc1cc2oc(=O)cc(-c3ccccc3)c2cc1Cl (configuration not stated) | inconclusive: 16.4 µM [inhibitor, single point] | –
12 | CCCCN(C(=O)CSc1nnnn1C)C1CCS(=O)(=O)C1 (configuration not stated) | inactive | –
13 | CCCN(Cc1cc2cc(C)ccc2[nH]c1=O)C(=O)c1cccc(OC)c1 | inconclusive: 20.6 µM [inhibitor, single point] | –
14 | O=C(OCc1cnc(Cl)s1)c1c(F)cccc1F | inconclusive: 29.1 µM [inhibitor, single point] | –
15 | COc1ccc(OC)c(NC(=O)[C@H](CSCc2ccccc2)N2Cc3ccccc3C2=O)c1 | inconclusive: 25.9 µM [inhibitor, single point] | –
16 | CCc1nnc(NC(=O)CSc2nc3c(cc2C#N)CCC3)s1 | inconclusive: 11.6 µM [inhibitor, partial curve, poor fit] | –
17 | O=C(/C(=C/c1ccc(Cl)cc1)c1nc2ccccc2[nH]1)c1cccs1 | active: 4.11 µM | –
18 | NC(=O)COC(=O)c1oc2ccccc2c1CSc1ccc(Cl)cc1 | inconclusive: 16.4 µM [inhibitor, single point] | –
19 | Nc1nc2ccc(S(=O)(=O)N3CCCCC3)cc2s1 | active: 9.2 µM | –
20 | N#Cc1nc(-c2ccc(COc3ccccc3)o2)oc1N1CCCCC1 | active: 23.1 µM | –
21 | Fc1ccc(-c2csc(Nc3ccccn3)n2)cc1 | inconclusive: 29.1 µM [inhibitor, single point] | –

Row | Structure (SMILES) | Potency | activity change, negative = growth inhibition
22 | COC(=O)c1cc2occc2n1CC(=O)Nc1ccc(N(C)C)cc1 | inactive | –
23 | CCN(CC)S(=O)(=O)c1ccc(N2CCOCC2)c(NC(=S)NC(=O)c2ccco2)c1 | inconclusive: 14.6 µM [inhibitor, partial curve, poor fit] | –
24 | O=c1nc(SCc2c(F)cccc2Cl)nc(-c2ccc(Cl)cc2)[nH]1 | inconclusive: 16.4 µM [inhibitor, partial curve] | –
25 | Cc1c(CC(=O)O)c(=O)oc2c(C)c3occ(-c4ccc(F)cc4)c3cc12 | inactive | –
26 | COc1cc2c(cc1OC)CN(CC(=O)Nc1ccc(C)c(S(=O)(=O)N3CCOCC3)c1)CC2 | inconclusive: 2.31 µM [inhibitor, partial curve] | –
27 | O=C(Nc1cccnc1)C1CCCN(S(=O)(=O)c2cccc3nsnc23)C1 (configuration not stated) | inconclusive: 18.4 µM [inhibitor, partial curve] | –
28 | O=C(CSc1nc2ccccc2o1)NCc1ccc2c(c1)OCO2 | inconclusive: 29.1 µM [inhibitor, single point] | –
29 | CC(C(=O)OCC(=O)Nc1cccc(S(=O)(=O)N2CCOCC2)c1)N1C(=O)c2ccccc2C1=O (configuration not stated) | inactive | –
30 | Cc1ccccc1NC(=O)Cn1c(=O)n(Cc2ccccc2)c(=O)c2c(C)c(C)sc21 | inconclusive: 18.4 µM [inhibitor, partial curve] and inconclusive: 2.59 µM [inhibitor, partial curve] | –
31 | N#CC1=C2SCN(C3CCCCC3)CN2C(=O)CC1c1ccc(Cl)cc1 (configuration not stated) | inconclusive: 29.1 µM [inhibitor, single point] | –
32 | COc1ccc(-c2cc3nc(C4CCN(C(=O)OC(C)(C)C)CC4)c(C(=O)Nc4cc(C)cc(C)c4)cn3n2)cc1 | active: 16.4 µM | –
33 | CC(C)(C)c1ccc(C(=O)NCc2nnc(SCC(=O)N3CCCC3)o2)cc1 | inconclusive: 25.9 µM [inhibitor, partial curve, poor fit] | –
34 | CC(=O)Nc1ccc(OCc2ccccc2)cc1[N+](=O)[O-] | inactive | –
35 | Cc1ccc(NC(=O)CSc2ccc3c(c2)OCCO3)c(O)c1 | inconclusive: 13 µM [inhibitor, partial curve] | –
36 | Cc1cc(C(F)(F)F)nn1CC(=O)NNC(=S)Nc1cccc(Cl)c1 | inactive | –
37 | CCC(Sc1nnc2c3ccccc3n(CC)c2n1)C(=O)Nc1nnc(C(C)C)s1 (configuration not stated) | inconclusive: 18.4 µM [inhibitor, single point] | –
38 | CC(C)CC(C(=O)N1CCOCC1)N1Cc2ccccc2C1=O (configuration not stated) | inactive | –
39 | COc1ccc(-c2csc(NC(=O)c3ccc(OCC(=O)N4CCOCC4)c(OC)c3)n2)cc1OC | active: 14.6 µM | –
40 | Cc1ccc(Cn2c(SCC(=O)N(C)C3CCS(=O)(=O)C3)nc3ccccc3c2=O)cc1 (configuration not stated) | inconclusive: 7.31 µM [inhibitor, partial curve] | –
41 | Cn1c(=O)cc(SCC(=O)N2CCN(c3ccccc3F)CC2)c2ccccc21 | inconclusive: 29.1 µM [inhibitor, single point] | –
42 | COc1ccccc1NC(=O)N1CCCC(C(=O)Nc2cccc(C)c2C)C1 (configuration not stated) | inactive | –
